Reference: PubChem BioAssay AID1956 (SRMLSC, 2009)
Some of the results follow. Shown are side measurements of this screen, not its main read-out; they come without a call.

Assay: enhancers of HSV replication in host cells, fold increase, host cell viability (AID 1956); note: tested in PC3 cells
Details: HSV replication augmentation in cells; fold increase: measured here: primary screen fold increase 10 uM, at 10 µM, stronger effect = higher value; viability: measured here: host cell viability series, at 25 µM, stronger effect = lower value

SMILES	fold increase	viability
CCN(CC)c1ccc(/C=C/c2nc3ccccc3s2)cc1	5.64	
CCOC(=O)CSc1n[nH]c(NC(=O)c2ccc(F)cc2)n1	1.37	94.8%
CCOc1ccc(-c2nc(CSCC(=O)N3CCN(C(=O)c4ccco4)CC3)c(C)o2)cc1	1.36	99.3%
Cc1ccccc1N1C(=O)c2cccc3c(N(C)CCO)ccc(c23)C1=O	2.44	94.2%
N#C/C(=C/c1ccc(N2CCCCC2)o1)C(=O)Nc1ccc2ccccc2c1	8.13	74.8%
COc1ccc(Cn2c(C)c(C)c(C#N)c2NC(=O)Nc2ccc(F)cc2)cc1	1.24	
COc1ccc(Cc2nc(-c3ccc(-n4cccc4)cc3)no2)cc1	1.38	102%
CN(C=[N+](C)C)c1cccc2c1C(=O)c1ccccc1C2=O	1.34	91.8%
CC(=O)c1ccc2c(c1)C1C=CCC1C(c1ccc(S(=O)(=O)N3CCOCC3)cc1)N2 (stereo unspecified)	1.43	96.7%
COc1ccccc1NC(=O)Nc1ccc2[nH]c(=O)[nH]c2c1	1.52	84.5%
COc1ccc(Nc2nc(C(C)(C)C)nc3c2nnn3Cc2ccccc2Cl)cc1OC	1.19	
Cc1ccc(NC(=O)CSCCc2ccccn2)nc1	1.35	94.8%
Nc1ccc2c3c(cccc13)CC2	1.33	97.8%
CCN(CC)C(=O)CSC(Nc1cccc(F)c1)=C(C#N)C#N	5	91.9%
O=C(NCc1cccs1)C1CCCN(S(=O)(=O)c2cccc3cccnc23)C1 (stereo unspecified)	1.43	92%
CCOC(=O)C1=C(CSc2nc(-c3ccccc3)ccc2C#N)OC(N)=C(C#N)C1c1ccc(OC)cc1 (stereo unspecified)	2.24	102%
CC1(C)CN(c2ccccc2)N(C(=O)c2ccc(F)cc2)C1=O	1.54	95.3%
CCN(CC)c1ccc(C=N/C(C#N)=C(\N)C#N)cc1	1.34	97.3%
CCN(CC)C(=O)C1CCCN(C/C=C/c2ccccc2)C1 (stereo unspecified)	1.33	97.5%
CCc1ccc2[nH]c(=O)c(CN(Cc3ccccc3OC)Cc3nnnn3Cc3ccco3)cc2c1	1.34	68.9%
COc1cc(/C=C2\OC(=O)c3c(OC)cccc32)ccc1O	2.42	99.3%
CC(C)N1CCN(Cc2cccc(-c3ccco3)c2)CC1CCO (stereo unspecified)	1.33	
O=C(c1oc(=O)c2ccccc2c1-c1ccccc1)N1CCC(O)CC1	1.37	93.9%
O=C(Nc1ccc(Cl)cc1)NC1CCCCNC1=O (stereo unspecified)	1.35	101%

SMILES	fold increase	viability
COc1cc(N2CCCC2)c(OC)cc1/C=C(/C#N)c1ccc(Br)cc1	2.31	
COc1cc(/C=c2\s/c(=C(/C#N)C(=O)N3CCCC3)n(-c3ccccc3)c2=O)ccc1O	4.36	97%
C=CCN1C(=O)/C(=C\c2ccc(OC(=O)c3ccco3)c(OC)c2)SC1=S	8.86	99.2%
O=C1C=C(NCc2ccc(Cl)cc2)CCC1	1.32	
COC(=O)C1=COC(C)C2CN3CCc4c([nH]c5ccccc45)C3CC12 (stereo unspecified)	1.41	88.4%
COc1ccc(C2=CC(c3sccc3C)n3nnnc3N2)cc1 (stereo unspecified)	5.44	85.4%
O=C(O)CC1(CC(=O)NCc2ccncc2)CCCCC1	1.33	99.1%
O=C(CSC1=NCCS1)Nc1ccc(S(=O)(=O)NC2CCCCC2)cc1	1.6	103%
CC1CCN(C(=O)CSc2nc3ccccc3c(=O)n2Cc2ccc3c(c2)OCO3)CC1	1.37	97.8%
CCOC(=O)c1c(NC(=S)Nc2ccccc2)sc2c1CCN(CC)C2	1.32	
Nc1ccc(Oc2ccccc2F)nc1	1.57	98.5%
Oc1ccc(-c2nc3ccccc3s2)c(O)c1	1.32	
CCOC(=O)Cc1csc(NC(=O)c2sc3nc4ccc(CC)cc4cc3c2N)n1	2.72	99.7%
N=c1oc2c3c4c(cc2cc1C(=O)Nc1ccccc1)CCCN4CCC3	6.54	94.4%
CCCCN(C)C1=CC2=CC(=C(C#N)C#N)CCC2CC1 (stereo unspecified)	8.28	85.3%
CC(C)NC(=S)N/N=C/c1cccs1	1.22	
COc1ccc(C(=O)NCCn2ccc3ccccc32)c(OC)c1	1.58	82%
COc1ccc2c(c1)CCc1sc(NC(=O)c3ccc(C)cc3)nc1-2	1.16	
C=CCN1C(=O)/C(=C/C(=O)OC)S/C1=N\NC(=O)c1ccccc1	1.33	95.2%
O=C1CCCC2=C1C(c1ccc(Cl)cc1)n1c(s/c(=C\c3ccc4ccncc4c3)c1=O)=N2 (stereo unspecified)	1.45	65.8%
O=[N+]([O-])c1ccc(C2=NN(c3ccccc3)C(c3ccco3)C2)cc1 (stereo unspecified)	9.93	102%
COc1ccc(C(=O)Nc2cccnc2Sc2ccc(Cl)cc2)cc1	1.41	103%
CC(=O)Oc1ccc2c(c1)Oc1cc(OC(C)=O)ccc1C21OC(=O)c2ccccc21	8.15	97.3%
O=C(COC(=O)CCC(=O)c1cccs1)Nc1ncc(Cl)cc1Cl	1.36	96.1%

SMILES	fold increase	viability
COc1cc(-c2nnc(COc3ccc(Cl)cc3C)o2)cc(OC)c1OC	1.07	
Cn1c(=O)c(N)c2c3c(c(Br)ccc31)C(=O)c1ccccc1-2	2.36	75%
COc1cc(Cl)c(C)cc1NC(=O)COc1ccccc1[N+](=O)[O-]	1.34	95.4%
CCOC(=O)CN1C(=O)S/C(=C/c2ccc(N3CCCCC3)o2)C1=O	3.44	96.4%
O=C(NC(=O)c1ccccc1)NC1(C(F)(F)F)OCCO1	2.08	97%
CN1Cc2sc(NC(=S)NC(=O)c3ccccc3)c(C#N)c2CC1(C)C	3.73	89.3%
CCN(CC)c1ccc(C=C(c2nnnn2-c2ccccc2)c2nnnn2-c2ccccc2)cc1	1.77	95.8%
CC(C)(C)c1nnc(NC(=O)CCn2cnc3ccccc3c2=O)s1	1.52	85.8%
CCCCN(C)CCNC(=O)Cn1ncc2c(=O)oc3ccc(C)cc3c21	1.32	94.5%
COc1ccc(N=CC2=C(Nc3ccc(OC)cc3)c3c(C)nn(-c4ccccn4)c3CC2)cc1	5.73	22.2%
CCOC(=O)C1CCCCN1Cc1cccc(C(F)(F)F)c1 (stereo unspecified)	1.32	98.1%
N#CC12COC3(CCCCC3C1(C#N)C#N)OC2=N (stereo unspecified)	1.46	94.5%
COc1ccccc1NC(=O)c1ccc(Br)o1	1.38	97.7%
CCCOc1ccc(C(=O)NNC(=S)NC(=O)c2cc(-c3ccccc3)nc3ccccc23)cc1	1.18	
CCOC(=O)NC(=O)C(/C=N/c1sccc1C(=O)OC)=C(\C)O	1.99	95.5%
COc1ccc(C(=O)c2sc3nc(-c4ccccc4)ccc3c2N)cc1OC	1.54	99.8%
O=Cc1sc(Nc2ccccc2)nc1Cl	1.6	93.8%
Cc1c(O)c2c3c(cccc3c1O)C(=O)N(c1ccccc1)C2=O	3.46	99.1%
CCCCn1c(NC(=O)c2ccccc2Cl)c(C#N)c2nc3ccccc3nc21	1.7	83.6%
CC1(C)CC(NC(=O)CCc2nnc(CCCCc3ccccc3)o2)CCO1 (stereo unspecified)	1.38	107%
COc1ccc(C)cc1S(=O)(=O)N(C)CC(=O)N1CCC(C(N)=O)CC1	1.59	98.9%
Cc1ccc(C2CC(c3cccs3)n3nc(N)nc3N2)cc1 (stereo unspecified)	1.51	93.5%
CCOC(=O)C(=O)Cc1nc2ccccc2s1	2.29	88.3%
O=S(=O)(Nn1c(O)c(C=C2N=c3ccccc3=N2)sc1=S)c1ccccc1	1.39	93.8%

SMILES	fold increase	viability
Cn1c(=S)[nH]c2[nH]c(=O)cnc2c1=O	1.43	97.2%
COc1cc(/C=C2\Oc3cc(O)ccc3C2=O)ccc1O	4.8	101%
C/C(=C\C=C(C#N)C#N)c1cc(C#N)c(N)o1	2.5	92.5%
COc1cc(/C=C(/C#N)c2nc3ccccc3c(=O)[nH]2)ccc1O	2.82	99.5%
COc1cc(/C=C2/NC(=O)N(Cc3ccccc3F)C2=O)cc(OC)c1O	1.49	98.5%
Cc1cc(C(=O)C(=O)N(C)C)c(C)n1-c1ccc([N+](=O)[O-])cc1	1.36	93.1%
COc1cccc(-c2nc(-c3ccc4c(c3)-c3ccccc3S4(=O)=O)c(-c3ccccc3)[nH]2)c1OC	1.18	
CC1CC(C)CN(C(=O)CSc2nnc(-c3ccc(Cl)cc3)o2)C1 (stereo unspecified)	1.42	103%
CC1(C)SC(=S)N(c2ccccc2)C1/[N+]([O-])=C/c1cccc([N+](=O)[O-])c1 (stereo unspecified)	1.32	
O=C(CN(c1ccc2c(c1)OCCO2)S(=O)(=O)c1ccccc1)Nc1ccc2c(c1)OCO2	1.35	86.9%
CC(C)(C)C(=O)/C=c1\s/c(=C\c2ccc(-c3ccc([N+](=O)[O-])cc3)o2)c(=O)n1CC(=O)NC(N)=O	4.74	
Cc1ccc(-c2nn3c(C)nnc3s2)cc1NC(=O)COc1ccc(Cl)cc1	1.36	101%
COc1ccc(C(=O)/C=C/c2ccc(N(C)C)cc2)c(OC)c1	8.06	56.4%
COC(=O)c1cccc(NC(=O)C(C)(C)C)c1	1.38	96.9%
O=C(Nc1cccc(NC(=O)N2CCN(c3ccccc3)CC2)c1)N1CCN(c2ccccc2)CC1	1.13	
Cc1ccc(-c2nc(N)sc2CC(=O)OCC(=O)NC2CCCC(C)C2C)cc1 (stereo unspecified)	1.48	102%
Cc1ccc(CSc2nnc(Cn3c(=O)sc4ccccc43)n2C)cc1	1.43	97.8%
Cc1ccc(CNC(=O)C2CCN(S(=O)(=O)c3ccc4c(c3)OCCCO4)CC2)cc1	1.38	90.3%
Cc1ccc(-c2nnn(CC(=O)N(Cc3ccco3)C(C(=O)NC3CCCC3)c3cccs3)n2)o1 (stereo unspecified)	1.28	
COc1cc(/C=C/C(=O)c2ccc(NS(=O)(=O)c3ccc(C)cc3)cc2)cc(OC)c1O	5.17	44%
O=C(N/N=C/c1sc(N2CCOCC2)nc1-c1ccccc1)c1cccc(S(=O)(=O)N2CCOCC2)c1	1.66	22.5%
O=c1[nH]c2cc3ccccc3cc2nc1C(F)(F)F	3.44	
O=C1c2cccc3c([N+](=O)[O-])ccc(c23)C(=O)N1c1nccs1	2.49	
